The record followed here is PMC4336329 (PLoS ONE, 2015).

The campaign covered roughly 310,000 compounds. About 14,000 (4.5%) showed an effect of 50% or more. Effects have a minus sign here. The list shows a part of the results.
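Further: peak tail current of the secondary pulse compared with the same well before compound.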

Chain of human ether-à-go-go-related gene (hERG) potassium channel (Q12809 whole entry, looked up): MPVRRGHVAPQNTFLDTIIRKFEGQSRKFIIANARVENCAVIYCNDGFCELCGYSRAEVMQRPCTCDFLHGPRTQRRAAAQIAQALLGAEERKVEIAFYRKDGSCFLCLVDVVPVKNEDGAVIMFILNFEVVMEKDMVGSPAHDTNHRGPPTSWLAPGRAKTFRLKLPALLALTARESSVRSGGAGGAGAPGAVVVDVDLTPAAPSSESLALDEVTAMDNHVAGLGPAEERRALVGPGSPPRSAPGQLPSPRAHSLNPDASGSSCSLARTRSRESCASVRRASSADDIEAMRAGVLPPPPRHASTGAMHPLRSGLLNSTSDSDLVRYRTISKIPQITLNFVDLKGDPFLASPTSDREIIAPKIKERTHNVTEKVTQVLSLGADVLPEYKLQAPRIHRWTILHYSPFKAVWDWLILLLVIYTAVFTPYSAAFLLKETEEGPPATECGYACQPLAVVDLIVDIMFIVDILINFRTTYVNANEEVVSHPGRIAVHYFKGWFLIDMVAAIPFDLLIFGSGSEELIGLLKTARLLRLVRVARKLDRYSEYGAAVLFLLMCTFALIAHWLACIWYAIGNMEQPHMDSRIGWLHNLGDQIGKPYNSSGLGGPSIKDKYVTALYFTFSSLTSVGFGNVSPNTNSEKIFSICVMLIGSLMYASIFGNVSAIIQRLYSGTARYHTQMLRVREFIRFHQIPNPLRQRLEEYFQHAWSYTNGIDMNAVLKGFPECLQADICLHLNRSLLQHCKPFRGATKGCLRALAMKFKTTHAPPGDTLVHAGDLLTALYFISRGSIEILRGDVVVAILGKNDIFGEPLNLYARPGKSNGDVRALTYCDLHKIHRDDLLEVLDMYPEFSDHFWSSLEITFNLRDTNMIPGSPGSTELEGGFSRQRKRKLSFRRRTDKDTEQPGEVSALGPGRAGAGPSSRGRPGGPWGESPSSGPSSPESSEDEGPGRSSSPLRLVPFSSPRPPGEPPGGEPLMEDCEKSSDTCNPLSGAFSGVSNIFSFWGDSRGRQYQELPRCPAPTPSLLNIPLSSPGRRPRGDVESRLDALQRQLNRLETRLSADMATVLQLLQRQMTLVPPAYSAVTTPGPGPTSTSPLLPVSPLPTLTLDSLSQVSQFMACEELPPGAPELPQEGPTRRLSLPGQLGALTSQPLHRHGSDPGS

This test has as its target human ether-à-go-go-related gene (hERG) potassium channel (human, UniProt Q12809). As to the kind of experiment: primary screen, population patch clamp on CHO cells stably expressing hERG.
With `COc1ccccc1CNC(=O)CN1C(=O)C(C)N(c2ccc(C)cc2)C1=O` (stereo not shown), the “hERG current change (%, negative = inhibition) at 10uM” value is -13.8%. The value for `CCCOc1ccc(-c2c(C(=O)N/N=C(\C)c3ccncc3)nnn2-c2nonc2N)cc1` was 18.4%; that for `C/C(=N\Nc1nnc(-c2ccccc2)c(-c2ccccc2)n1)c1cccc([N+](=O)[O-])c1` was -4.9%.

Regarding `CC(=O)Nc1ccc(NC(=O)c2ccccc2N(Cc2ccccc2)S(C)(=O)=O)cc1`, the “hERG current change (%, negative = inhibition) at 10uM” value was 3.05%. The same measure for `Cc1ccccc1-n1nnnc1SCc1csc(-c2ccccc2)n1`: -1.68%.

As to `COc1cc(C(=O)OCC(=O)NCc2ccco2)cc(OC)c1OC`, the “hERG current change (%, negative = inhibition) at 10uM” value amounted to 1.04%.

With `O=C(Nc1ccc(F)cc1)NC1CCCc2ccccc21` (stereo not shown), the “hERG current change (%, negative = inhibition) at 10uM” value was 25.5%. The value for `O=S(=O)(NC(=S)NC1CCCCC1)c1cccs1` was 18.5%; that for `CCN1CCN(Cc2ccc(NC(=O)c3ccc(C)c(NC(=O)c4ccno4)c3)cc2C(F)(F)F)CC1` was -2.76%; that for `COc1ccc(-n2c(C)c(C)c3c(NCCN(C)C)ncnc32)cc1` was -32.4%.

`CCN1CCN(C(=O)CN(c2cccc(Br)c2)S(=O)(=O)c2ccccc2)CC1`: the “hERG current change (%, negative = inhibition) at 10uM” value is given as -37.5%. The value for `Clc1ccc(-n2nnnc2-c2ccccc2)cc1` was -0.933%; that for `O=C(/C(=C/O)N=Nc1ccccc1)c1ccco1` was 6.46%; that for `COC(=O)c1cc(-c2ccc(C)cc2)n[nH]1` was -0.0688%. The same measure for `COc1cc(CC(=O)OCC(=O)Nc2cc(S(=O)(=O)N3CCCC3)ccc2Cl)cc(OC)c1OC`: -11.2%; for `CSc1nc2c(c(=O)[nH]1)C(c1ccc(Cl)cc1)CC(=O)N2` (stereo not shown): 20.5%. The same measure for `O=C(CCNC(=O)c1ccc(Cl)cc1)Nc1c(F)c(F)cc(F)c1F`: 1.93%. For the compound `CC(=O)Oc1ccc(C(=O)N2c3ccccc3NC(=O)C2C)cc1` (stereo not shown), the “hERG current change (%, negative = inhibition) at 10uM” value is on record as 7.6%.

As for `Cc1ccc2c(c1)C(c1ccccc1)=NCC(=O)N2C`, the “hERG current change (%, negative = inhibition) at 10uM” value is listed as 3.88%. The same measure for `O=C(Nc1ccc(Cl)c(C(F)(F)F)c1)NC1CC2CCCC(C1)N2Cc1ccccc1` (stereo not shown): -71%; for `COC(=O)c1ccc2c(=O)n(CCCN3CCOCC3)c(=S)[nH]c2c1`: -3.53%. The value for `COc1ccc2c(C)cc(SCC(=O)Nc3cccnc3Cl)nc2c1` was 10.3%; that for `O=C(NCc1ccccc1)C(c1cccnc1)N(C(=O)c1csnn1)c1ccc(F)cc1` (stereo not shown) was -12.5%; that for `COCCCNC(=O)Cn1c(=O)n(CC(=O)N2CCCCC2)c(=O)c2sccc21` was 12.1%. The value for `COCCNC(=O)C1CC(c2cccc([N+](=O)[O-])c2)=NO1` (stereo not shown) was 15.8%; that for `c1nc(Nc2ccc(N3CCOCC3)cc2)c2ccsc2n1` was -7.59%; that for `COc1ccc(N=N/C(=C\O)C(=O)c2ccco2)cc1` was 3.51%. Consider `O=c1c2ccccc2[nH]c2ccc(F)cc12`, for which the “hERG current change (%, negative = inhibition) at 10uM” value was determined as 17.8%. The value for `COc1ccc(NS(=O)(=O)c2cccc3nsnc23)cc1Cl` was 11.2%. The same measure for `CN(C(=O)COC(=O)C1COc2ccccc2O1)c1c(N)n(Cc2ccccc2)c(=O)[nH]c1=O` (stereo not shown): 2.18%; for `O=c1c2ccccc2oc2nc(C3CCCCC3)n(Cc3ccco3)c(=O)c12`: -16.3%. Consider `COc1ccccc1NC(=O)c1nnn(Cc2ccccc2)c1NC(C)=O`, for which the “hERG current change (%, negative = inhibition) at 10uM” value is on record as 2.36%.

On to `COc1cc(C(=O)N2CCN(C)C(C)C2)ccc1OC1CCN(C(C)=O)CC1` (stereo not shown), for which the “hERG current change (%, negative = inhibition) at 10uM” value was determined as 7.3%.

As to `Cc1cc(C)c[n+](C[n+]2cc(C)cc(C)c2)c1.[Br-]`, the “hERG current change (%, negative = inhibition) at 10uM” value is on record as 9.57%. With `Clc1cccc(Nc2ncnc3ccc(Br)cc23)c1`, the “hERG current change (%, negative = inhibition) at 10uM” value is listed as -5%. The same measure for `CCN1CCc2c(sc(NC(=O)c3ccc(S(=O)(=O)N4CCOCC4)cc3)c2C(=O)OC)C1.Cl`: -42.2%. The value for `COc1ccccc1NC(=O)c1cccc(N2C(=O)C3C4C=CC(C4)C3C2=O)c1` (stereo not shown) was -8.28%; that for `CN(C(=S)Nc1ccccc1)c1ccccc1` was -3.7%; that for `COc1ccc2nc(NC(=O)c3ccc(-c4cccc([N+](=O)[O-])c4)o3)sc2c1` was 18%. For the compound `O=C(Nc1ccccc1)c1ccccc1OCC(O)CN1C(=O)c2ccccc2S1(=O)=O` (stereo not shown), the “hERG current change (%, negative = inhibition) at 10uM” value is -8.85%. The same measure for `O=C(NNC(=O)c1ccc(Cl)c(S(=O)(=O)Nc2ccc(Cl)cc2)c1)c1ccc(=O)[nH]c1`: 8.75%; for `Cc1ccc(S(=O)(=O)N2CCOC2CNC(=O)C(=O)NCc2ccccc2)cc1` (stereo not shown): -10.3%; for `O=C(CS(=O)(=O)c1ccccc1)N1CCc2ccccc21`: -8.39%.
